Among all 310,000 compounds or so, about 14,000 (4.5%) showed an effect of 50% or more. The effect is printed as a negative number. The list shows a part of the results.
target: human ether-à-go-go-related gene (hERG) potassium channel (human, UniProt Q12809); experiment: primary screen, population patch clamp on CHO cells stably expressing hERG
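Also: peak tail current of the secondary pulse compared with the same well before compound.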

human ether-à-go-go-related gene (hERG) potassium channel, sequence (Q12809 whole entry, looked up): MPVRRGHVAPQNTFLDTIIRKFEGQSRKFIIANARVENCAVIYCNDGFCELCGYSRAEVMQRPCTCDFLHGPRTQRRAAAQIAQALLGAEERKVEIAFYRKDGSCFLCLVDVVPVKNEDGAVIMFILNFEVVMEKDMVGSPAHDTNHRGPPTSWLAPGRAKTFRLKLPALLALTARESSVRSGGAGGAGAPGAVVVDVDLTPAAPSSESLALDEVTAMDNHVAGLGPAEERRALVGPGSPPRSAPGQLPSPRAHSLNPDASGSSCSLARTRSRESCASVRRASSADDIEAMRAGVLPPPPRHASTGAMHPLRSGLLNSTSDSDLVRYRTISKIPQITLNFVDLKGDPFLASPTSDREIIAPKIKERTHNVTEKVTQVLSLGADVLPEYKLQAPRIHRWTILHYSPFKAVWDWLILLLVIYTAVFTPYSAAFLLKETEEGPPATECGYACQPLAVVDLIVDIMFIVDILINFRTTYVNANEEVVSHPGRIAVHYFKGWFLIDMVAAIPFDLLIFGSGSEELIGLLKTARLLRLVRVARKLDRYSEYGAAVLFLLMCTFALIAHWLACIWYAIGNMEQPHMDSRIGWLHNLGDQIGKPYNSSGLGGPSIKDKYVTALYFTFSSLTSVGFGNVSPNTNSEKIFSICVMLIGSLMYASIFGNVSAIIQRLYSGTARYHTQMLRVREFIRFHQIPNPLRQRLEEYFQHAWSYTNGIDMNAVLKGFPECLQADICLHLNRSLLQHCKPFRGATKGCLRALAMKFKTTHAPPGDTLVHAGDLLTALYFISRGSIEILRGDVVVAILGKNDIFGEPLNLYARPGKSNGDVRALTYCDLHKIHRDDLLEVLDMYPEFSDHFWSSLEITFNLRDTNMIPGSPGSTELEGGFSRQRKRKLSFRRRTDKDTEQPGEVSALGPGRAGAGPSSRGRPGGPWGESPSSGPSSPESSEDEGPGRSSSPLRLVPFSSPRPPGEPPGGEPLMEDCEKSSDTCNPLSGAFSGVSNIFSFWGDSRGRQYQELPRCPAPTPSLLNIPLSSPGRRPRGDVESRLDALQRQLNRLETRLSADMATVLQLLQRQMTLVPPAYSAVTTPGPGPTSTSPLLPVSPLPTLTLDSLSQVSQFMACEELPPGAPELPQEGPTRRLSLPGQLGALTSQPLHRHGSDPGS

SMILES | hERG current change (%, negative = inhibition) at 10uM [%]
CC(C)(C)NC(=O)c1cc([N+](=O)[O-])ccc1N1CCCCC1 | 6.07
O=C(c1noc2c1CCCC2)N1CCN(c2ccc(F)cc2)CC1 | 4.41
COC(=O)c1cc(-c2ccc(S(=O)(=O)N3CCCC3)cc2)c(C(F)(F)F)s1 | 9.67
Cc1cc(NC(=O)CCC(=O)N(c2ccccc2)C(C(=O)NC2CCCC2)c2ccccc2C)no1 (centres unmarked) | -6.71
CCOC(=O)C1=C(CS(=O)(=O)c2ccccc2)NC(=O)NC1c1ccccc1OCC (centres unmarked) | -4.89
Cc1oc(-c2ccc(Cl)cc2)nc1CS(=O)CC(=O)NC1CCCCC1 (centres unmarked) | -23.7
CCOC(=O)C1CCCN(C(=O)c2ccc(S(=O)(=O)Nc3ccccc3OC)cc2)C1 (centres unmarked) | -29.2
Cc1ccnn1CCC(=O)N1CCCC(N2CCN(c3cccc(Cl)c3)CC2)C1 (centres unmarked) | -30.3
COCCCNC(=O)C1CCC(CNS(=O)(=O)c2ccc(C)cc2)CC1 (centres unmarked) | 14
CCCCC(NC(C)=O)c1nc2ccccc2n1CCCC (centres unmarked) | 5.02
Cc1cc(OCCN2CCCCCC2)ccc1[N+](=O)[O-].O=C(O)C(=O)O | -46.2
O=C(COC(=O)C12CC3CC(CC(O)(C3)C1)C2)NC12CC3CC(CC(C3)C1)C2 | 9.45
N#Cc1ccc(-c2ccc(F)cc2)nc1Sc1ccccc1 | 15.5
OCC[C@H]1C[C@@H](O)[C@H](O)[C@]2(OCCCc3ccccc32)O1 | -10.6
COc1cccc(C(=O)OCC(=O)Nc2ccc(N3CCOCC3)cc2)c1 | 17.6
CCCc1nc(SCC(=O)c2ccc(OC)cc2)c2ccccc2n1 | -18.5
Cc1ccc(NC(=O)CSc2ncccn2)c([N+](=O)[O-])c1 | -5.7
COc1cccc(C(C(=O)NC2CCCC2)N(C(=O)CNC(=O)c2ccco2)c2cccnc2)c1 (centres unmarked) | 12.1
COc1ccc(CNC(=O)COc2ccc(S(=O)(=O)N3CCOCC3)cc2)cc1 | -9.37
CCCN(Cc1nnc(-c2cccs2)o1)C(=O)CN1C(=O)NC2(CCCCC2C)C1=O (centres unmarked) | -28
COc1ccc(NN=Nc2ccc([N+](=O)[O-])cc2)cc1 | 19.1
c1cncc(CNc2cccc(-c3nc4ccccc4[nH]3)c2)c1 | -39.1
CCOc1ccc2ccccc2c1CNc1nnnn1C | 5.26

SMILES | hERG current change (%, negative = inhibition) at 10uM [%]
O=C(N1CCCC1)C(F)(F)Oc1ccc(F)cc1 | 17.3
CCN1CCN(c2ccc(S(=O)(=O)N3CCOCC3)cc2NC(=O)/C=C/c2cccc(OC)c2OC)CC1 | -5.19
Cc1ccc(OCc2n[nH]c(=S)n2-c2ccccc2)cc1 | 18.7
CCOC(=O)/C(N=O)=C(\O)C1CCN(C(=O)OCC)CC1 | 13.2
CCC(CC)c1nnc(NC(=O)c2ccc3c(c2)OCO3)s1 | 3.33
Cc1c(C(=O)N2CCC3(CC2)OCCO3)sc2ncnc(N3CCN(c4ccccn4)CC3)c12 | -44.2
CCCC12CN3CCN(C1)CC(CCC)(C3)C2=O | 9
CSc1ccccc1C(=O)N1CCN(c2ncccn2)CC1 | 9.9
CCCn1c(CN(C)Cc2ccccc2)nc2c1c(=O)n(C)c(=O)n2C | -23.4
CCCN1CCN(CCCNC(=S)Nc2ccc(OC)cc2)CC1 | -22.8
COc1ccc(N2CCN(C(=O)c3ccc4c(=O)n(CC5CCCO5)c(=O)[nH]c4c3)CC2)cc1 (centres unmarked) | 8.11
CCOc1ccccc1C(=O)NCC(=O)OCC(=O)NCCc1ccc(S(N)(=O)=O)cc1 | 10
O=S(=O)(c1cccc(S(=O)(=O)N2CCC(Cc3ccccc3)CC2)c1)N1CCOCC1 | -0.6
CCOc1ccccc1-c1nc(-c2cc3ccccc3nc2OC)no1 | 0.615
O=C(NCc1ccncc1)c1cnccn1 | 5.67
COc1ccc(-c2cc(-c3ccc(Cl)cc3)c(C#N)c(SCC(=O)O)n2)cc1 | 4.28
CN(C)c1ccc(/C=N/NC(N)=S)cc1[N+](=O)[O-] | 9.88
CCc1nc(SCC(=O)N2CCCCC2)c2c(=O)n(C)c(=O)n(C)c2n1 | -17.8
COC(=O)c1ccc(COc2ccccc2/C=N/NC(N)=O)o1 | 4.65
CN1CCN(S(=O)(=O)c2cccc(C(=O)O)c2)CC1 | 10.8
Cc1ccc(C2CC(=O)C=C(Nc3ccc(Cl)cc3)C2)cc1 (centres unmarked) | 7.93
CCN(CC(=O)Nc1ccc2c(c1)OCCO2)C(=O)CCc1ccccc1Cl | -30.6
Cc1ccc(N2C(=O)N(CC(=O)Nc3cc(C)cc(C)c3)C(=O)C2C)cc1 (centres unmarked) | 31.3

SMILES | hERG current change (%, negative = inhibition) at 10uM [%]
COc1ccc(N2CCN(C(=O)NCc3ccc(OC)c(Cl)c3)CC2)cc1 | -8.68
CCN(CC)c1ccc(-c2nn3c(-c4n[nH]c5c4CCC5)nnc3s2)cc1 | 2.73
O=C(c1ccc(Br)o1)N1CCN(Cc2ccccc2Cl)CC1 | -12.6
Clc1cc(Br)ccc1OCCOCCOc1cccc2cccnc12 | 2.91
CC1(C)Cc2c(c(N3CCOCC3)nc3sc(C(=O)Nc4cccc(Cl)c4)c(N)c23)CO1 | 12.6
CC(=O)Nc1ccc(OCCOc2ccccc2C(C)=O)cc1 | 7.77
COc1ccc(C2=NN(CC(=O)NCC(OC)OC)C(=O)CC2)cc1 | -0.415
CN1CCN(C(=O)c2cc(COc3c(F)cccc3F)on2)CC1c1ccccc1 (centres unmarked) | -38.1
Cc1cccc(NC(=O)CCN2C(=O)c3cccc([N+](=O)[O-])c3C2=O)c1 | 10.8
Cc1ccc(C(=O)Nc2ccc(N3CCCC3)cc2)cc1 | 16.1
Nc1n[nH]c2ccccc12 | 20.5
Cc1[nH]c2ccccc2c1C(=O)C(=O)NCc1cccs1 | -0.498
Cc1cc(C)nc(N2CCC(C(=O)NC3CCCCCC3)CC2)n1 | -4.75
CC(=O)NC1(c2ccccc2)CCN(Cc2nnnn2C(C)(C)C)CC1 | 12.4
COCCCNC(=O)Cc1coc2ccc3ccccc3c12 | -9.15
CC(Oc1ccc(/C=N/NC(=O)Cc2cccc3ccccc23)cc1)C(=O)O (centres unmarked) | -6.12
C/C(=N\N1CCCCCC1)c1c(O)n(C)c(=O)n(C)c1=O | 18.4
Cc1cccc(N2CCN(C3CCCCC3NS(=O)(=O)c3ccccc3)CC2C)c1 (centres unmarked) | 11.4
CC(C)CC(OC(=O)c1cccs1)C(=O)NCc1cccs1 (centres unmarked) | -5.65
CCN(CC)S(=O)(=O)c1cccc(NC(=S)NC(=O)/C=C/c2ccc(S(=O)(=O)N3CCOCC3)cc2)c1 | -6.82
C=CCNC(=S)NC(CC(=O)OC)c1ccc2c(c1)OCO2 (centres unmarked) | 4.12
O=C(NCC1c2ccccc2CCN1C(=O)CN1C(=O)c2ccccc2C1=O)C1CCCCC1 (centres unmarked) | -6.49
CCN(CC)C(=O)N1CCn2c(nc3ccccc32)C1 | -0.701

SMILES | hERG current change (%, negative = inhibition) at 10uM [%]
CCc1nnc(SCC(=O)Nc2ccc3c(c2)OCO3)n1CC | 13.2
O=C(NNC1=NS(=O)(=O)c2ccccc21)c1ccccc1Cl | 7.15
COCC(=O)Nc1cc(C)cn(Cc2ccccc2Cl)c1=O | 15.1
O=[N+]([O-])c1cccc(/C=N/NC2=NS(=O)(=O)c3ccccc32)c1 | 25.4
CCCn1c(SCC(=O)NC(C)(C)C)nnc1C(C)C | 15
COc1ccc(CCNC(=O)COC(=O)CSc2ccc([N+](=O)[O-])cc2)cc1OC | -10.4
CC(C)OC(=O)c1cccc(NC(=O)CSc2nnc(N)s2)c1 | -17
Cc1nc2ncccn2c1-c1csc(Nc2ccccc2)n1 | -54.7
CCOC(=O)C1=C(c2ccccc2)OC(N)=C(C#N)C1C(C)C (centres unmarked) | -3.43
Cc1ccc(-c2noc(CN3CCC(C(N)=O)CC3)n2)cc1 | 21.9
COc1cc(/C=C/C(=O)OCC(=O)NC(=O)NC(C)C)ccc1OCC#N | -16.8
Cc1ccccc1NC(=O)CSc1cn[nH]n1 | 11.8
COc1ccc(S(=O)(=O)N2CCC(C(=O)N3CCc4ccccc4C3)CC2)cc1OC | -27.4
COc1cccc(NC(=O)c2ccn(C)n2)c1 | 20.7
Cc1nc2cc(NC(=O)N(C)c3ccc4ccccc4c3)ccc2o1 | -3.63
Cc1ccc2cc(CN(CCO)Cc3nnnn3Cc3ccc(F)cc3)c(=O)[nH]c2c1 | -19.3
CN(CC(=O)NCc1ccccn1)S(=O)(=O)c1ccc2ccccc2c1 | -9.77
O=c1cc(COc2ncnc3ccccc23)nc2sccn12 | 1.7
Cc1cc(F)ccc1S(=O)(=O)N1CCCOC1CNC(=O)C(=O)NCc1cccnc1 (centres unmarked) | 7.92
CN(CC(=O)Nc1cccc(F)c1)C(=O)c1cc(S(=O)(=O)N2CCCCC2)ccc1N1CCOCC1 | -2.94

Reference: article PMC4336329 (PLoS ONE, 2015)
